Results on 20 molecules are retold here after the supplement of paper PMC10369915.

Some of the results follow. No stated cut-off is given here; in the data, active = 3.2 or more and inactive = the rest. Only a few entries rise above the background.

Some targets named below: SHP2 C-SH2 domain E139D; SHP2 N-SH2 domain L43F; SHP2 N-SH2 domain T42A; SHP2 N-SH2 domain T52S.
Holding throughout (experiment): enrichment score (SH2-bound / input frequency) (ratio); bacterial display of known human phosphotyrosine sites (pTyr-Var adds point mutants) read by sequencing; higher = stronger binding; tyrosines were phosphorylated by kinases first
Settings in all cases: peptide library: pTyr-Var

Test [1] addresses SHP2 C-SH2 domain wild-type.
Test [2] has as its target SHP2 N-SH2 domain wild-type.
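Further: displayed peptides selected on beads carrying the immobilized SH2 domain, with library peptides lacking any tyrosine serving as negative controls.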

B1: TP53_Y234_T231S_YF (peptide)
chain: CTSIHYNFMCN
Turning to B1, the enrichment score with SHP2 C-SH2 domain E139D was active: 3.91; in test [1], active: 3.37; with SHP2 N-SH2 domain L43F, active: 3.42; with SHP2 N-SH2 domain T42A it was inactive: 2.68; with SHP2 N-SH2 domain T52S, inactive: 3.01; in test [2] it was inactive: 2.94.

B2: TP53_Y234_Y234H_YF (peptide)
chain: CTTIHHNFMCN
With B2, the enrichment score with SHP2 C-SH2 domain E139D was inactive: 3.09; in test [1], inactive: 2.42; in the test with SHP2 N-SH2 domain L43F, active: 3.4; with SHP2 N-SH2 domain T42A, inactive: 2.45; with SHP2 N-SH2 domain T52S, inactive: 3.03; in test [2] it was inactive: 2.25.

B3: TP53_Y234_Y234N (peptide)
chain: CTTIHNNYMCN
For B3, the enrichment score in the test with SHP2 C-SH2 domain E139D was inactive: 1.92; in test [1] it was active: 3.74; in the test with SHP2 N-SH2 domain L43F, inactive: 1.64; with SHP2 N-SH2 domain T42A it was inactive: 1.43; in the test with SHP2 N-SH2 domain T52S, inactive: 1.63; in test [2] it was inactive: 1.25.

B4: TP53_Y327_F328V (peptide)
chain: PLDGEYVTLQI
For the molecule B4, the enrichment score in the test with SHP2 C-SH2 domain E139D is inactive: 0.708; in test [1], inactive: 0.967; with SHP2 N-SH2 domain L43F it was inactive: 1.04; with SHP2 N-SH2 domain T42A, inactive: 0.838; with SHP2 N-SH2 domain T52S, inactive: 0.835; in test [2] it was inactive: 0.816.

B5: TP53_Y234_Y234S (peptide)
chain: CTTIHSNYMCN
As to B5, the enrichment score with SHP2 C-SH2 domain E139D was inactive: 2.69; in test [1], active: 4.21; with SHP2 N-SH2 domain L43F it was inactive: 2; in the test with SHP2 N-SH2 domain T42A, inactive: 1.87; in the test with SHP2 N-SH2 domain T52S, inactive: 2.29; in test [2], inactive: 1.98.

B6: TP53_Y327_D324E (peptide)
chain: PLEGEYFTLQI
On to B6, for which the enrichment score with SHP2 C-SH2 domain E139D is inactive: 1.96; in test [1], inactive: 2.51; in the test with SHP2 N-SH2 domain L43F it was inactive: 2.4; in the test with SHP2 N-SH2 domain T42A, inactive: 2.38; with SHP2 N-SH2 domain T52S it was inactive: 2.08; in test [2], inactive: 1.74.

B7: TP53_Y234_T230A_YF (peptide)
chain: CATIHYNFMCN
B7: the enrichment score was active: 3.57 in the test with SHP2 C-SH2 domain E139D; inactive: 3.12 in test [1]; inactive: 3.06 with SHP2 N-SH2 domain L43F; inactive: 2.57 with SHP2 N-SH2 domain T42A; inactive: 2.91 with SHP2 N-SH2 domain T52S; inactive: 3.05 in test [2].

B8: TP53_Y234_N239T (peptide)
chain: CTTIHYNYMCT
Consider B8, for which the enrichment score in the test with SHP2 C-SH2 domain E139D was active: 4.69; in test [1], active: 5.27; in the test with SHP2 N-SH2 domain L43F, active: 3.44; in the test with SHP2 N-SH2 domain T42A it was inactive: 3; in the test with SHP2 N-SH2 domain T52S, active: 3.6; in test [2], active: 3.22.

B9: TP53_Y234_T231N (peptide)
chain: CTNIHYNYMCN
Take B9: the enrichment score with SHP2 C-SH2 domain E139D is active: 3.24; in test [1], active: 5.03; with SHP2 N-SH2 domain L43F, inactive: 2.61; in the test with SHP2 N-SH2 domain T42A it was inactive: 2.4; in the test with SHP2 N-SH2 domain T52S, inactive: 2.47; in test [2] it was inactive: 2.16.

B10: TP53_Y234_Y236F (peptide)
chain: CTTIHYNFMCN
In the case of B10, the enrichment score was active: 4.44 with SHP2 C-SH2 domain E139D; active: 3.79 in test [1]; active: 4.06 in the test with SHP2 N-SH2 domain L43F; inactive: 2.9 with SHP2 N-SH2 domain T42A; active: 3.68 with SHP2 N-SH2 domain T52S; active: 3.54 in test [2].

B11: TP53_Y234_N239Y (peptide)
chain: CTTIHYNYMCY
On to B11, for which the enrichment score with SHP2 C-SH2 domain E139D is active: 4.81; in test [1], active: 5.22; with SHP2 N-SH2 domain L43F, active: 4.07; with SHP2 N-SH2 domain T42A it was active: 3.43; with SHP2 N-SH2 domain T52S, active: 4.15; in test [2], active: 3.35.

B12: TP53_Y234_T230P_YF (peptide)
chain: CPTIHYNFMCN
Take B12: the enrichment score in the test with SHP2 C-SH2 domain E139D was inactive: 2.92; in test [1] it was inactive: 3.07; with SHP2 N-SH2 domain L43F it was inactive: 3.01; with SHP2 N-SH2 domain T42A it was inactive: 2.81; with SHP2 N-SH2 domain T52S it was inactive: 3.19; in test [2], inactive: 3.01.

B13: TP53_Y234_Y234F (peptide)
chain: CTTIHFNYMCN
As for B13, the enrichment score was active: 4.13 with SHP2 C-SH2 domain E139D; active: 4.22 in test [1]; active: 3.7 with SHP2 N-SH2 domain L43F; inactive: 2.88 with SHP2 N-SH2 domain T42A; inactive: 2.89 with SHP2 N-SH2 domain T52S; inactive: 3 in test [2].

B14: TP53_Y234_N239Y_YF (peptide)
chain: CTTIHYNFMCF
For B14, the enrichment score was inactive: 3.14 with SHP2 C-SH2 domain E139D; active: 3.36 in test [1]; inactive: 3.05 in the test with SHP2 N-SH2 domain L43F; inactive: 2.32 with SHP2 N-SH2 domain T42A; inactive: 2.86 with SHP2 N-SH2 domain T52S; active: 3.46 in test [2].

B15: TP53_Y234_Y234D (peptide)
chain: CTTIHDNYMCN
In the case of B15, the enrichment score with SHP2 C-SH2 domain E139D was inactive: 1.63; in test [1], active: 3.6; in the test with SHP2 N-SH2 domain L43F, inactive: 1.26; with SHP2 N-SH2 domain T42A, inactive: 0.923; with SHP2 N-SH2 domain T52S it was inactive: 0.944; in test [2], inactive: 0.895.

B16: TP53_Y234_T230A (peptide)
chain: CATIHYNYMCN
Turning to B16, the enrichment score was active: 3.98 with SHP2 C-SH2 domain E139D; active: 5.59 in test [1]; inactive: 2.57 in the test with SHP2 N-SH2 domain L43F; inactive: 2.5 with SHP2 N-SH2 domain T42A; inactive: 2.74 with SHP2 N-SH2 domain T52S; inactive: 2.25 in test [2].

B17: TP53_Y234_T231A (peptide)
chain: CTAIHYNYMCN
Consider B17, for which the enrichment score with SHP2 C-SH2 domain E139D was active: 3.98; in test [1], active: 5.25; in the test with SHP2 N-SH2 domain L43F, inactive: 2.85; with SHP2 N-SH2 domain T42A, inactive: 2.6; with SHP2 N-SH2 domain T52S, inactive: 2.7; in test [2], inactive: 2.27.

B18: TP53_Y234_Y234Q (peptide)
chain: CTTIHQNYMCN
As for B18, the enrichment score with SHP2 C-SH2 domain E139D was inactive: 2.74; in test [1] it was active: 4.41; with SHP2 N-SH2 domain L43F, inactive: 2.13; in the test with SHP2 N-SH2 domain T42A it was inactive: 1.69; in the test with SHP2 N-SH2 domain T52S it was inactive: 1.92; in test [2] it was inactive: 1.87.

B19: TP53_Y327_G325A (peptide)
chain: PLDAEYFTLQI
Regarding B19, the enrichment score was inactive: 0.663 with SHP2 C-SH2 domain E139D; inactive: 0.755 in test [1]; inactive: 0.554 with SHP2 N-SH2 domain L43F; inactive: 0.793 in the test with SHP2 N-SH2 domain T42A; inactive: 0.539 in the test with SHP2 N-SH2 domain T52S; inactive: 1.2 in test [2].

B20: TP53_Y234_T230N (peptide)
chain: CNTIHYNYMCN
For the molecule B20, the enrichment score with SHP2 C-SH2 domain E139D was active: 3.81; in test [1], active: 5.51; with SHP2 N-SH2 domain L43F, inactive: 2.13; with SHP2 N-SH2 domain T42A, inactive: 2.16; in the test with SHP2 N-SH2 domain T52S, inactive: 2.14; in test [2] it was inactive: 1.8.
